The whole screen tested about 360,000 compounds, of which about 830 (0.23%) were called active. Inconclusive results, whose numbers are uncertain, are shown with a selection of clear calls.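 How the source made its calls: active means mean luciferase reporter signal, scaled so untreated is 0 and the glycosylation-blocking control 100, at or above a set limit in every replicate; inconclusive means mean reaches the limit but not every replicate does; inactive means mean below the limit.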 The source holds several records for some structures; these can differ, active in one and inactive in another.
Experiment: increase of ERlucT glycosylation luciferase signal, primary screen, N-linked glycosylation inhibitor project, D54 ERlucT cells, luminescence, set 2 (AID 588692);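 further: luciferase carries N-glycosylation sites so blocking glycosylation raises the light; 0% = median of neutral control wells and 100% = median of 100 nM tunicamycin wells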
Settings: 24 h, at 12.5 µM, stronger effect = higher value, percent of 100 nM tunicamycin response

| Compound | reporter increase |
| --- | --- |
| COc1cccc(C(=O)Nc2ncc3c(n2)CC(c2ccc(OC)cc2OC)CC3=O)c1 (stereo unspecified) | inconclusive: 26.9% |
| Cc1ccc2nsnc2c1NC(=O)c1ccc(-c2cc(Cl)ccc2Cl)o1 | active: 129% |
| CCCCCC(=O)N1C[C@H](n2cc(C3CC3)nn2)[C@@H](O)C[C@@H]1c1ccc(Cl)cc1 | inactive: 1.1% |
| Cc1cc(NC(=O)NC(=O)c2ccccc2NC(=O)C(C)N)ccc1Oc1ncc(Br)cn1 (stereo unspecified) | inconclusive: 27% |
| CC(C)(C)c1nnc2sc(SCC(=O)c3ccc(Cl)cc3)nn2c1=O | inconclusive: 25.5% |
| COc1ccc(/C=C2\SC(=O)N(CCNC(=O)C3=COCCO3)C2=O)cc1 | inconclusive: 25.6% |
| CCOc1cccc(C(=O)Nc2cccc(-c3nnc(-c4ccc(C)cc4)o3)c2)c1 | active: 98.5% |
| Cc1cccc(C)c1OCCNC(=O)C(=O)NCc1ccco1 | inconclusive: 30.4% |
| CCCn1c(Nc2nc3ccccc3n2C)nc2ccccc21 | inconclusive: 209% |
| C=CCn1c(SCc2c(C)noc2C)nc2ccccc2c1=O | inconclusive: 27.2% |
| C=CCOc1ccc(C2NC(=S)NC(C)=C2C(=O)c2ccccc2)cc1OC (stereo unspecified) | inconclusive: 29.3% |
| COc1ccccc1-c1csc(C(NC(C)=O)c2cccc(F)c2)n1 (stereo unspecified) | active: 32.8% |
| Cc1ccccc1NCc1nc2ccccc2n1C | inactive: -9.54% |
| CCc1ccc(/C=N/NC(=O)c2cc(-c3cccc([N+](=O)[O-])c3)n[nH]2)cc1 | inconclusive: 25.5% |
| COC(=O)c1ccccc1NC(=O)CSc1nncn1-c1cccnc1 | inactive: -1.19% |
| CN(Cc1ccc(Cl)cc1)C(=O)c1ccccc1SCC(=O)N1CCCC1 | inactive: -1.87% |
| C[C@H](CO)N1C[C@H](C)[C@H](CN(C)Cc2ccncc2)Oc2ccc(NC(=O)Nc3ccc(C(F)(F)F)cc3)cc2CC1=O | inconclusive: 29.1% |
| Cc1cc(C)nc(/N=C(\N)Nc2ccc(CC(=O)OC(C)C)cc2)n1 | active: 48.4% |
| NC(=O)[C@H]1CC2(CC(c3cccc(NC(=O)COc4ccc(Cl)cc4)c3)=NO2)CN1C(=O)C(c1ccccc1)c1ccccc1 (stereo partly specified) | inconclusive: 25.1% |
| COc1ccc2nc3cc([N+](=O)[O-])ccc3c(NNc3ccc([N+](=O)[O-])cc3)c2c1 | inactive: -9.6% |
| NC(=O)/C=C\C(=O)Nc1cccc(C(F)(F)F)c1 | inconclusive: 26.5% |
| COc1ccc(CCn2c(=N)c(C(=O)NCc3ccco3)cc3c(=O)n4cccc(C)c4nc32)cc1 | inconclusive: 25.8% |

| Compound | reporter increase |
| --- | --- |
| O=C(O)c1ccc(N/N=C/c2ccc(-c3ccc(Cl)cc3Cl)o2)cc1 | inconclusive: 26.8% |
| CC1=C(Nc2ccc(C(=O)O)cc2)C(=O)c2ccccc2C1=O | inactive: 4.4% |
| C=CCOc1ccccc1C(=O)/C=C1/C(=O)Nc2ccccc21 | active: 31.6% |
| Cc1ccc(NC(=O)c2ncn(CCCNCc3ccccc3)n2)cc1C | inconclusive: 26.7% |
| O=C(NC1C=CS(=O)(=O)C1)c1sc2ccccc2c1Cl (stereo unspecified) | active: 31.6% |
| OCC1OC(n2cnc3c(NCc4ccco4)ncnc32)C(O)C1O (stereo unspecified) | inconclusive: 27.9% |
| Cc1ccc2nc(SCC(=O)Nc3ccc4[nH]c(=O)[nH]c4c3)[nH]c2c1 | inactive: 0.0765% |
| CCOc1cc(/C=C/C(=O)c2ccc3c(c2)OCCO3)ccc1OCC(=O)N(C)C | inconclusive: 30% |
| O=C(CSc1ncnc2nc[nH]c12)c1ccc(Cl)cc1 | inconclusive: 45.9% |
| COc1ccc(N2CCN(C3CC(=O)N(Cc4ccccc4)C3=O)CC2)cc1 (stereo unspecified) | inactive: 2.28% |
| CCOC(=O)c1c(NC(C)=O)sc2c(OCCN(CC)CC)c(Br)ccc12 | active: 85.4% |
| O=C(CSc1nnc(-c2ccco2)n1Cc1ccccc1)OC1CCCCC1 | inactive: -0.951% |
| O=C(O)CCC/C=C\C[C@@H]1[C@@H](/C=C/[C@@H](O)COc2cccc(Cl)c2)[C@H](O)C[C@@H]1O | inconclusive: 35.5% |
| Oc1ccc(NCc2ccccc2OCc2ccccc2)cc1 | active: 51.8% |
| O=C(CSc1nccn1-c1ccc(F)cc1)NCc1ccc(F)cc1 | inactive: 0.0305% |
| COc1ccc(C(=O)NC(=S)Nc2cccc(S(=O)(=O)N3CCOCC3)c2)cc1 | inconclusive: 25.8% |
| CCOC(=O)N1CCN(C(=O)c2cccc(N3C(=O)NC4CC3(C)Oc3ccc(Cl)cc34)c2)CC1 (stereo unspecified) | active: 29.3% |
| Cc1cccn2c(=O)c3cc(C(=O)NC4CCCC4)c(=N)n(CC4CCCO4)c3nc12 (stereo unspecified) | inconclusive: 27.5% |
| Cc1ccnc(NC(=O)CCCOc2cc(=O)n(C)c3ccccc23)c1 | active: 25.8% |
| Nc1nc(Sc2ccc([N+](=O)[O-])c3nonc23)c2[nH]cnc2n1 | inconclusive: 48.8% |
| COCCNC(=O)c1cc(-c2cccs2)on1 | inconclusive: 25.8% |
| CC1CCCN(CCCNC(=O)c2cc3c(Cl)nc4ccccc4c3s2)C1 (stereo unspecified) | inconclusive: 27.7% |

| Compound | reporter increase |
| --- | --- |
| Cc1ccc(OC(=O)c2cccc(S(=O)(=O)N3CCCC3)c2)c(-n2nc3ccccc3n2)c1 | inactive: -4.98% |
| CCOc1ccccc1C1CC(=O)Nc2cc3c(cc21)OCCO3 (stereo unspecified) | inconclusive: 25.1% |
| COc1ccc(CCCNC(=O)C2Cc3c(-c4cccc(C(C)=O)c4)ccnc3O2)cc1 (stereo unspecified) | inconclusive: 26.4% |
| CCCCN(CC)CCNC(=O)c1cc2cc3ccc(Cl)cc3nc2o1 | inactive: 1.64% |
| O=C(Nc1cccc(NC(=O)c2ccc([N+](=O)[O-])o2)c1)c1ccco1 | inconclusive: 27.3% |
| COc1cc(C2c3cc4c(cc3OC(Nc3ccc(C(=O)O)cc3)C2C)OCO4)cc(OC)c1OC (stereo unspecified) | inconclusive: 29.2% |
| Brc1nc(-c2ccccc2)nc(-c2ccccc2)c1Br | inactive: 5.03% |
| Cc1ccc(C(=O)NC(=C(Cl)Cl)S(=O)(=O)c2ccccc2)cc1 | inconclusive: 30.1% |
| Oc1ccccc1C=NN1CCCCCC1 | inactive: -1.4% |
| COC(=O)/C=C1\C(=O)N(c2nc3ccccc3s2)C(=S)N1c1ccc(F)cc1 | inconclusive: 28% |
| O=Cc1cccnc1SCc1ccccc1 | inconclusive: 27.5% |
| O=C(Cc1ccc(Cl)cc1)Nc1ccccc1N1CCN(C(=O)c2ccccc2)CC1 | inconclusive: 30.4% |
| COc1ccc(S(=O)(=O)CCC(=O)N2CCN(c3ccc(C(C)=O)cc3)CC2)cc1 | inactive: -1.09% |
| CCOc1ccc(S(=O)(=O)NCc2ccccn2)cc1NC(=O)c1ccccc1F | inconclusive: 25.1% |
| CCOC(=O)c1[nH]c2ccc(F)cc2c1NC(=O)C(C)N1CCc2cc(OC)c(OC)cc2C1 (stereo unspecified) | inconclusive: 25.6% |
| COC(=O)Nc1nc(-c2ccccc2)c(C(=O)c2ccc(Cl)cc2)s1 | inconclusive: 26.1% |
| O=C1C(Br)=C(c2ccccc2)C(c2ccccc2)=C1c1ccccc1 | inconclusive: 28.6% |
| COc1cc2c(C#N)c(N3CCc4ccccc4C3)nc(N)c2c(N)n1 | active: 25.9% |
| O=C(CC(NC(=O)c1ccccc1)c1ccccc1)Nc1ccc(F)c(F)c1 (stereo unspecified) | inconclusive: 28.2% |
| c1ccc(CNc2ncnc3c2cnn3-c2ccccc2)cc1 | active: 25.7% |
| COc1ccc(NC(=O)C2(C)Cc3c(-c4cccc(C(N)=O)c4)ccnc3O2)cn1 (stereo unspecified) | inconclusive: 28.2% |
| CC(=O)Nc1cccc(-c2ccnc3c2CC(C)(C(=O)NCCc2ccccc2)O3)c1 (stereo unspecified) | inconclusive: 26.8% |

| Compound | reporter increase |
| --- | --- |
| COc1ccccc1NC(=O)CSCc1nc2ccccc2[nH]1 | inconclusive: 41.1% |
| Cc1ccnc(NC(=O)C(Cc2ccccc2)NC(=O)c2ccccc2)c1 (stereo unspecified) | active: 25.5% |
| CCOc1ccccc1N1CCN(C(=O)c2cc3ccccc3cc2OC)CC1 | inconclusive: 25.1% |
| CCOc1cc(-c2cc(-c3ccc(C)cc3)nc(N)c2C#N)ccc1O | inactive: 3.02% |
| Cc1ccc(-c2cc(C(=O)Nc3ccncc3)c3ccccc3n2)cc1 | inconclusive: 25.6% |
| O=C(NCC(c1ccco1)N1CCN(c2ccc(F)cc2)CC1)OCc1ccccc1 (stereo unspecified) | inactive: -1.21% |
| CC(NC=C1C(=O)OC(C)(C)OC1=O)C(=O)O (stereo unspecified) | inactive: -0.318% |
| CCn1c2ccccc2c2cc(NC(=O)COC(=O)c3ccccc3F)ccc21 | inconclusive: 28.4% |
| CC(C)CCN1CCN(Cc2cccc(C(F)(F)F)c2)CC1CCO (stereo unspecified) | inactive: 3.09% |
| Cc1cc(NC(=O)CSc2nnc(CNC(=O)c3ccc(C(C)(C)C)cc3)o2)no1 | inactive: -0.89% |
| O=C(Nc1cccc([N+](=O)[O-])c1)c1ccc([N+](=O)[O-])o1 | inconclusive: 26.2% |
| CCN1CCN(C(=O)CS(=O)Cc2nc(-c3ccc(OC)cc3)oc2C)CC1 (stereo unspecified) | inactive: 0.446% |
| CC1CC(C)CN(C(=O)/C=C/c2ccc([N+](=O)[O-])s2)C1 (stereo unspecified) | inconclusive: 27.1% |
| COc1cc(C(=O)N/N=C(\C)c2ccccn2)cc(OC)c1OC | inconclusive: 25% |
| CN1C(=O)C(O)(CC(=O)/C=C/C=C/c2ccccc2)c2ccccc21 (stereo unspecified) | inactive: -2.27% |
| CCNc1ccc(Br)cc(C(=O)/C=C/c2ccc(Cl)cc2)c1=O | inconclusive: 26.9% |
| COc1cccc(C(=O)Nc2ccc3c(c2)C(=O)c2ccccc2C3=O)c1 | active: 34% |
| COc1ccc2c(c1)C(=O)N1[C@H]3c4cc(OC)ccc4OC[C@@H]3[C@H](c3ccccc3)[C@]1(C)C(=O)N2 | active: 61.5% |
| C[C@H](CO)N1C[C@H](C)[C@@H](CN(C)S(=O)(=O)c2cccs2)Oc2c(NC(=O)Cc3ccccc3)cccc2C1=O | inconclusive: 32.5% |
| COc1cc2c(cc1OC)C(c1cccs1)N(C(=O)c1ccncc1)CC2 (stereo unspecified) | inconclusive: 28.2% |
